According to the RNAGym collection of RNA variant scans (doi:10.1093/nar/gkz1192):
Read counts are not given, so values of variants with three or more changes are uncertain.

B1: CPEB3 Ribozyme (parent)
chain: UAACAGGGGGCCACAGCAGAAGCGUUCACGUCGCAGCCCCUGUCAGAUUCUGGUGAAUCUGCGAAUUCUGCUGUAUAUCUC

Variants of: B1
Test: self-cleavage, relative activity (ratio to wild type); higher = more cleavage; in vitro, sequencing
Procedure, shortened: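 Relative activity compares each variant's cleaved/total read fraction with that of the unmutated ribozyme. To get these fractions, barcoded CPEB3 ribozyme libraries from rounds of error-prone PCR were transcribed with T7 RNA polymerase for 5 hours at 37°C and then given 15 min of DNase I treatment before EDTA was added. The RNAs were reverse transcribed with template switching and sequenced on Illumina, and DNA sequencing linked barcodes to variants. A minimum of 5 reads applied, and three batches were averaged.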

| Variant | self-cleavage |
| --- | --- |
| UGACAGGGGGCCACAGCAGAAGCGUCCACGUCGCAGCCCCUGUCACUUCCUGGUGAACCUGCGAAUUCUGCUGUAUAUCCC [A2G U26C G46C A47U U49C U58C U80C] | 0.04 |
| UGACAGGGGGCCACAGCAGAAGCGUUCACGUCACAGCCCCUGCCAGAUUCUGGUGAGUCUGCGAAUUCUGCUGAAUAUCUC [A2G G33A U43C A57G U74A] | 0.06 |
| UGACAGGGGUCCACAGCAGAAGCGUUCACGUCGCAGCCCCUGUCAGAUUAAGGUGAAUCUGCGAAUUCUGCUGUAUACCUC [A2G G10U C50A U51A U78C] | 0.21 |
| UGACAGGAGGCCACGGCAGAAGCGUUCACGUCGCGGCCCCGGCCAGAUUCUGGUGAAUCUGCGAAUUCUGCUGUAUUUCUC [A2G G8A A15G A35G U41G U43C A77U] | 0.04 |
| UGACAGGGGGCCACAGCAGAAGCGUUCACGUCGCAGCCCCAGUCAGAUUCUGGUGAAUCUGCGUAUUCGGCUGUACAUCCC [A2G U41A A64U U69G U76C U80C] | 0.36 |
| UGACAGGGGGCCACAGCAGAAGCGCUCUCGUCGCAGCCCCUGUCAGAUUCUGGUGAAUCUGCGAAUUCUGCUGCAUAUCUC [A2G U25C A28U U74C] | 0.53 |
| UGACAGGGAGCCACAGCAGGAGCGUUCACGUCGCAGCCCCUGUCAGAUUCUGGUGAAUCUGCGAAUUCUGCUGUAUACCUC [A2G G9A A20G U78C] | 0.32 |
| UGACAGGGGACCACAGCAGGAGCGUUCACGUCGCAGCCCCUGUCAGAUUCUGGUGAAUCUGCGAAUUCUGCUGUAUAUCUC [A2G G10A A20G] | 0.37 |
| UGACAGGGGGCCACAGCAGAAGCGUUCACGUCGCAGCCCCUGACAGAUUCUGGUGGAUCUGCGAAUUCUGCUGUAUAUCUC [A2G U43A A56G] | 0.76 |
| UGACAGGGUGCCACAGCGGAAGCGUUCACGCCGCAGCCCCUGUCAGAUUCUGGUGAAUCUGCGAAUUCUGCUGUAUAUCUC [A2G G9U A18G U31C] | 0.39 |
| UGACAGGGGGCCACAGCAGAAGCGCUCACGUCGCAGCCCCUGUCAGAUUCUGGUGAAUCUGCGAAUUCUGCUGUAUAUCUA [A2G U25C C81A] | 0.6 |
| UGACAGGGGGCCACAGCAGAAGCGUUCACGUCGCAGCCCCCGUCAGAUACUGGUGAAUCUGCGAAUUCUGCUGUAUAUCUC [A2G U41C U49A] | 0.17 |
| UGACAGGGGGCCACAGCAGAAGCGUUCACGUCGCAGCCCCUGCCAGAUUCAGGUGAAUCUGCGAAAUCUGCUGUAUAUCUC [A2G U43C U51A U66A] | 0.22 |
| UGACAGGGGGCCACAGCAGAAGCGUUCACGUCGCAGCCCCUGUCAGAUUCUAGUGAAUCUGCGAAUUCGGCUGUAUAUCUC [A2G G52A U69G] | 0.44 |
| UGACAGUGGGCCACAGCAGAAGCGUUCACGUCGCAGCCCCUGUCAGACUCUGGCGAGUCUGCGAAUUCUGCUGUAUAUCUC [A2G G7U U48C U54C A57G] | 0.34 |
| UGACAGGCGGCCACAGCGGAAGCGUUCACGACGCAGCCCCUGUCAGAUUCUGGCGAAUCUGCGAAUUCUGCUGUAUCGCUC [A2G G8C A18G U31A U54C A77C U78G] | 0.03 |
| UGACAGGGGGCCACAGCAGAAGCGUACACGUCGCAGCCCCUGUCAGAUUCUGGAGAAUCUGCGAAUUCUGCUGUGUAUCUC [A2G U26A U54A A75G] | 0.3 |

| Variant | self-cleavage |
| --- | --- |
| UGACAGGAGGCCACAGCAGAAGCGUUCACGUCGCAGCCCCUAUCAGAUUCUGGUGAAUCUGCGAAUUCUGCUGUAUAUCUC [A2G G8A G42A] | 0.1 |
| UGACAGGGGGCCACAGCAGAAGCGUUCACGUCGCAGCCCCUGCCAAAUUCUGGCGAAUCUGCGAAUUCUGCUGUAUAUCUC [A2G U43C G46A U54C] | 0.1 |
| UGACAGGGGGCCACAGCAGAAGCGUCCACGUCGCAGCCCCUGUCAGAUUCUGGUGAAUCUGCGAAUUCUGCUGUGUAUCUC [A2G U26C A75G] | 0.2 |
| UGACAGGGGGCCACAGCAGAAGCGUUCACGUCGCAUCCCCUGUCAGAUUCAGGUGAAUCUGCGAAUUCUGCUGUAUAUCUC [A2G G36U U51A] | 0.07 |
| UGACAGGUGGCCACAGCAGAAGCGUACACGUCGCAGCCCCCGUCAGAUCCUGGUGAAUCUGCAAAUUCUGCUGUAUACCUC [A2G G8U U26A U41C U49C G63A U78C] | 0.05 |
| UGACAGGGGGCCACAGCAGAAGCAUUCACGUCGCAGCCCCUGUCAGAUUCUGGUGAAUCUGCGGAUUCUGCUGUAUAUCUC [A2G G24A A64G] | 0.26 |
| UGACAGGGGGCCACAGCAGAAGCGUUCACGACGCAGCCCCUGCCAGAUUCUGGUGAAUCUGCGAAUUCUGCUGUAUAUCUC [A2G U31A U43C] | 0.39 |
| UGACAGGGGGCCACAGCAGAAGCGUCCACGUCGCAGCCCCUGUCAGAUUCUGGCGAAUCUGCGAAUUCUGCUGUAUAUCUC [A2G U26C U54C] | 0.32 |
| UGACAGGGGGCCACAGCAGAAGCGUUCACGUCCCAGCCCCCGACAGAUUCUGGUGAAUCUGCGAAUUCCGCCGUAUAUCUC [A2G G33C U41C U43A U69C U72C] | 0.06 |
| UGACAGGGGGCCACAGCAGAAGCGCUCACGUCGCAGCCCCAGUCAGAUUCUGGUGAAUCUGCGAAUUCUGCUGUAUAUCUC [A2G U25C U41A] | 0.45 |
| UGACAGGGGGCCACAGCAGAAGCGUUCACGUCGCAGCCCCAGUCAGAUCCUGGUGAGUCUGCGAAUUCUGCAGUAAAUCUC [A2G U41A U49C A57G U72A U76A] | 0.04 |
| UGACAGGGGGCCACAGCAGAAGCGUUCACGUCCCAGCCACUGUCAGACUCUGGUGAAUCUGCGAAUUCUGCUGCCUAUCUC [A2G G33C C39A U48C U74C A75C] | 0.22 |
| UGACAGGGGGCCACAGCAGAAGCGUUCACGCCGCAGCCCCUGCCAGAUUCUGGUGAAUCUGCGAAUUCUGCUGUAUAUCUC [A2G U31C U43C] | 0.19 |
| UGACAGGGGGCCACAGCAGAAGCGUUCACGUCACAGCCCUCCUCAGAUUCUGGUGAAUCCGCGAAUUCUGCUGUAUAUCUC [A2G G33A C40U U41C G42C U60C] | 0.09 |
| UGACAGGAGGCCACAGCAGAAGCGUUCUCGUCGCAGCCCCUGACGGAUUCUGGUGAAUCUGCGAAUUCUGCUGUAUAUCUC [A2G G8A A28U U43A A45G] | 0.24 |
| UGACAGGGGGCCACAGCAGAAGCAUCCACGUCGCAGCCCCUGUCAGAUUCUGGUGAAUCUGCGAAUUCUGCUGUAUGUCUC [A2G G24A U26C A77G] | 0.34 |
| UGACAGUGGGCCACAGCAGAAGCGUUCACGUCGCAGCCCCUGUCAGAUUCUGGUGAAUCUGCGAAUUCUGCUGAAUAUCUC [A2G G7U U74A] | 0.54 |
